Assay results reported in paper PMC4077589.
Where two headings read alike, the source gives them in different places. Results are given in words; binding and its absence hold for the method and conditions named. Binding seen in cells or lysates may run through a third protein. Some binding calls cover weakened binding; strength is not graded here. For part of these data: Tags and fused reporters may be left off the sequences shown. Blank lines part the entries; values can stand above or below the molecule they belong to.

By UniProt entry, the sequences of proteins in these tests, tags left out.
UniProt P53618: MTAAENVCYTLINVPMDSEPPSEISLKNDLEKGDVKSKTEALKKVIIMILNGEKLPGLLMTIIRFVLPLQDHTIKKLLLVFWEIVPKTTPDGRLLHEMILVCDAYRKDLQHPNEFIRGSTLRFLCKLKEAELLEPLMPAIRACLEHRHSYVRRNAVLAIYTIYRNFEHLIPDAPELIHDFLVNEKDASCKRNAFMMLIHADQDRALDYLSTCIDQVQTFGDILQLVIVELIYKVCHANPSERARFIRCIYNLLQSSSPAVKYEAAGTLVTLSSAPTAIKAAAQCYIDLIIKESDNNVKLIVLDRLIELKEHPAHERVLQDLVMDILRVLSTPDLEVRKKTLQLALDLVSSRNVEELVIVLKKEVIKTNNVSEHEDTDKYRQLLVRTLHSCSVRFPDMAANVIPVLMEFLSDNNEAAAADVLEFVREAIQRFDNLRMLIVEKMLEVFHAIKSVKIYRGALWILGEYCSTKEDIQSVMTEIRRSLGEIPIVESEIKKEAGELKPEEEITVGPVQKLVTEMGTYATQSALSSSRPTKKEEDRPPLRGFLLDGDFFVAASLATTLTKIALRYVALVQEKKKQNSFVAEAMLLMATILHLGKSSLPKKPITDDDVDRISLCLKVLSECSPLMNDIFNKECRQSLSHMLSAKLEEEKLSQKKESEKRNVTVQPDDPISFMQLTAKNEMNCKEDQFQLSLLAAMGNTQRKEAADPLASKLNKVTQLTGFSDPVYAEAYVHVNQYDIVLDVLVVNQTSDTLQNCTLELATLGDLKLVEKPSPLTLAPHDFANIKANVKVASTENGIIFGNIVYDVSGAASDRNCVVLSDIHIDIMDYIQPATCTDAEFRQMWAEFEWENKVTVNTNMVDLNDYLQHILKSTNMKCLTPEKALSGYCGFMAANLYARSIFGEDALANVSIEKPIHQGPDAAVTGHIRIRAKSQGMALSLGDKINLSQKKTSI

Key:
[1] = target: T1, C-terminally FLAG-tagged full-length TMEM115 (TMEM115-FL-FLAG) (human) (UniProt Q12893); test: co-IP; FLAG immunoprecipitation from lysates of transfected HEK293 cells; lysis buffer 50 mM Tris-HCl pH 7.5, 150 mM NaCl, 1% Triton X-100; 4°C; immunoblotting
T1 sequence: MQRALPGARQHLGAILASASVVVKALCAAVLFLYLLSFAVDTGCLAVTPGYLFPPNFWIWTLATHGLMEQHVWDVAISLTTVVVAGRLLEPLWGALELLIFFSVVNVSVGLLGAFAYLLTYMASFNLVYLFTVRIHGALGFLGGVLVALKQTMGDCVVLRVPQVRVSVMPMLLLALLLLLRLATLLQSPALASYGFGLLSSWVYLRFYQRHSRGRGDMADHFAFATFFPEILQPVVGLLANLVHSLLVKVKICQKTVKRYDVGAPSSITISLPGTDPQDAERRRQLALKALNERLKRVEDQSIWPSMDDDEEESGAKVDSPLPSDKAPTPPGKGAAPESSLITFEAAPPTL

TMEM115-NT229 (human) [2] = target: T2, TMEM115-NT229 (human) (UniProt Q12893); test: as above
T2 sequence: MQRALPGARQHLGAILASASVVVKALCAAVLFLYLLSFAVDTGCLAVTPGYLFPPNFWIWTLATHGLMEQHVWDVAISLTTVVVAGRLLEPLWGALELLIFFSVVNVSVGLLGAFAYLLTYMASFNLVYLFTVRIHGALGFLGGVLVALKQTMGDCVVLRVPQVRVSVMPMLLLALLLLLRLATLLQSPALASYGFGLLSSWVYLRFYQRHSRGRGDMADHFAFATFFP

[3] = target: T3, C-terminally FLAG-tagged full-length TMEM115 (TMEM115-FL-FLAG) (human), Q12893; test: as above; conditions: remark: other sources report otherwise
T3 chain: T1 sequence

TMEM115-NT229 (human) [4] = target: T2, TMEM115-NT229 (human); test: as above; remark: listed apart in the source
[5] = target: T4, full-length TMEM115–FLAG–HIS (in vitro translated) (human), Q12893; test: co-IP; in vitro translated products combined in cell lysis buffer, FLAG immunoprecipitation, beads washed with cell lysis buffer containing 150 mM NaCl; conditions: remark: other sources report otherwise
T4 chain: T1 sequence

ERGIC53–GFP = target: T5, ERGIC53–GFP (UniProt P49257); test: co-IP; GFP immunoprecipitation from lysates of HEK293 cells transfected with TMEM115-FL–FLAG and ERGIC53–GFP; immunoblotting
T5 sequence: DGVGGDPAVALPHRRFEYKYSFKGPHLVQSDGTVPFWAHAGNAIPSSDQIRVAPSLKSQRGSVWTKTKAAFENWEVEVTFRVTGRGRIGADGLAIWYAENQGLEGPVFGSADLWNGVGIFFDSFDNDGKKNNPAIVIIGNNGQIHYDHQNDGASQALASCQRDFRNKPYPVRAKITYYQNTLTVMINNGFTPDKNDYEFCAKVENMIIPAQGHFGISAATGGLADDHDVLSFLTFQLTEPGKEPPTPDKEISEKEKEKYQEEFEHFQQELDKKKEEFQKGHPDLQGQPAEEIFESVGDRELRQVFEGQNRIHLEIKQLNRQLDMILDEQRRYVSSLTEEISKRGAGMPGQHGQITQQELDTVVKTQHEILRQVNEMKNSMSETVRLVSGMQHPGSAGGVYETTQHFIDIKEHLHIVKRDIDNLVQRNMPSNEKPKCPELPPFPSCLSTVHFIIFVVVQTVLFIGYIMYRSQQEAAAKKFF

Molecule: endogenous β-COP (from UniProt P53618 1-953)
binding [1]: binds | binding (TMEM115-NT229 (human) [2]): binds

B1: endogenous COG3, Q96JB2 1-828 (protein)
chain: MAEAALLLLPEAAAERDAREKLALWDRRPDTTAPLTDRQTDSVLELKAAAENLPVPAELPIEDLCSLTSQSLPIELTSVVPESTEDILLKGFTSLGMEEERIETAQQFFSWFAKLQTQMDQDEGTKYRQMRDYLSGFQEQCDAILNDVNSALQHLESLQKQYLFVSNKTGTLHEACEQLLKEQSELVDLAENIQQKLSYFNELETINTKLNSPTLSVNSDGFIPMLAKLDDCITYISSHPNFKDYPIYLLKFKQCLSKALHLMKTYTVNTLQTLTSQLLKRDPSSVPNADNAFTLFYVKFRAAAPKVRTLIEQIELRSEKIPEYQQLLNDIHQCYLDQRELLLGPSIACTVAELTSQNNRDHCALVRSGCAFMVHVCQDEHQLYNEFFTKPTSKLDELLEKLCVSLYDVFRPLIIHVIHLETLSELCGILKNEVLEDHVQNNAEQLGAFAAGVKQMLEDVQERLVYRTHIYIQTDITGYKPAPGDLAYPDKLVMMEQIAQSLKDEQKKVPSEASFSDVHLEEGESNSLTKSGSTESLNPRPQTTISPADLHGMWYPTVRRTLVCLSKLYRCIDRAVFQGLSQEALSACIQSLLGASESISKNKTQIDGQLFLIKHLLILREQIAPFHTEFTIKEISLDLKKTRDAAFKILNPMTVPRFFRLNSNNALIEFLLEGTPEIREHYLDSKKDVDRHLKSACEQFIQQQTKLFVEQLEEFMTKVSALKTMASQGGPKYTLSQQPWAQPAKVNDLAATAYKTIKTKLPVTLRSMSLYLSNKDTEFILFKPVRNNIQQVFQKFHALLKEEFSPEDIQIIACPSMEQLSLLLLVSK
binding [3]: binds

B3: endogenous COG3 (protein, UniProt Q96JB2 1-828)
chain: B1 chain
binding (TMEM115-NT229 (human) [4]): binds

B5: Myc-tagged COG6 (in vitro translated), Q9Y2V7 1-657 (protein)
chain: MAEGSGEVVAVSATGAANGLNNGAGGTSATTCNPLSRKLHKILETRLDNDKEMLEALKALSTFFVENSLRTRRNLRGDIERKSLAINEEFVSIFKEVKEELESISEDVQAMSNCCQDMTSRLQAAKEQTQDLIVKTTKLQSESQKLEIRAQVADAFLSKFQLTSDEMSLLRGTREGPITEDFFKALGRVKQIHNDVKVLLRTNQQTAGLEIMEQMALLQETAYERLYRWAQSECRTLTQESCDVSPVLTQAMEALQDRPVLYKYTLDEFGTARRSTVVRGFIDALTRGGPGGTPRPIEMHSHDPLRYVGDMLAWLHQATASEKEHLEALLKHVTTQGVEENIQEVVGHITEGVCRPLKVRIEQVIVAEPGAVLLYKISNLLKFYHHTISGIVGNSATALLTTIEEMHLLSKKIFFNSLSLHASKLMDKVELPPPDLGPSSALNQTLMLLREVLASHDSSVVPLDARQADFVQVLSCVLDPLLQMCTVSASNLGTADMATFMVNSLYMMKTTLALFEFTDRRLEMLQFQIEAHLDTLINEQASYVLTRVGLSYIYNTVQQHKPEQGSLANMPNLDSVTLKAAMVQFDRYLSAPDNLLIPQLNFLLSATVKEQIVKQSTELVCRAYGEVYAAVMNPINEYKDPENILHRSPQQVQTLLS
binding [5]: binds

B6: C-terminally FLAG-tagged full-length TMEM115 (TMEM115-FL-FLAG) (protein, UniProt Q12893 1-351)
chain: T1 sequence
binding (ERGIC53–GFP): binds

More lines, now with the values ahead:

binding [3]: binds
B2: Myc–COG6 (transfected), Q9Y2V7 1-657 (protein)
chain: B5 chain

binding [5]: binds
B4: Myc-tagged COG3 (in vitro translated), Q96JB2 1-828 (protein)
chain: B1 chain

binding [3]: binds
B7: Myc–COG3 (transfected), Q96JB2 1-828 (protein)
chain: B1 chain
